These results are taken from PubChem BioAssay AID1745853 (National Center for Advancing Translational Sciences (NCATS), 2022).

Each structure is given as a SMILES string. Some of the results follow. Shown are side measurements of this screen, not its main read-out; they come without a call.

Common to all, as to test: Primary Screen for Target Class Profiling of Small Molecule Inhibitors of Methyltransferases
The target of assay [1] is Glycine N-methyltransferase (Homo sapiens) (UniProt Q14749). The settings on record: purified enzyme, MTase-Glo SAH luminescence; measured here: GNMT inhibition; at 40 µM; stronger effect = lower value. A digest of the protocol:
(§1)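 Each enzyme was reacted with SAM and its substrate, with compounds tested once at 40 uM; SAH formed was read by MTase-Glo luminescence.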

Assay [2] addresses Guanidinoacetate N-methyltransferase (Homo sapiens) (UniProt Q14353). The conditions noted are these: purified enzyme, MTase-Glo SAH luminescence; measured here: GAMT inhibition; at 40 µM; stronger effect = lower value. A digest of the protocol:
as §1

Assay [3] addresses Histamine N-methyltransferase (Homo sapiens) (UniProt P50135). The conditions noted are these: purified enzyme, MTase-Glo SAH luminescence; measured here: HNMT inhibition; at 40 µM; stronger effect = lower value. A digest of the protocol: as §1
Assay [4] addresses Nicotinamide N-methyltransferase (Homo sapiens) (UniProt P40261). The conditions noted are these: purified enzyme, MTase-Glo SAH luminescence; measured here: NNMT inhibition; at 40 µM; stronger effect = lower value. A digest of the protocol:
as §1

For assay [5], the target named is Phenylethanolamine N-methyltransferase (Homo sapiens) (UniProt P11086). The conditions noted are these: purified enzyme, MTase-Glo SAH luminescence; measured here: PNMT inhibition; at 40 µM; stronger effect = lower value. The procedure, abridged:
as §1
On the % scale 0 is the no-effect control and ±100 the full control effect.

With `O=C(NC1CCCCC1)c1nc[nH]c1C(=O)NCCc1c[nH]c2ccccc12`, the activity change, negative = inhibition was -3.71% in assay [1]; 3.76% in assay [2]; 0.121% in assay [3]; -13.2% in assay [4]; -3.5% in assay [5].
As for `CCCC1c2cccn2CCN1C(=O)NCc1cccc(OC)c1` (stereo not given), the activity change, negative = inhibition in assay [1] is -0.29%; in assay [2], 0%; in assay [3] it was 2.08%; in assay [4], 0.689%; in assay [5], 2.97%.
Consider `CC(=O)N1CCC(N[C@H]2C[C@@H](Cc3cc(CN(C)C)on3)C2(C)C)CC1`, for which the activity change, negative = inhibition in assay [1] is -5.45%; in assay [2] it was -4.56%; in assay [3] it was -3.12%; in assay [4], -3.08%; in assay [5], -2.26%.
For the compound `COC(=O)[C@@H](C)NC(=O)[C@H]1CN(C(=O)c2cccnc2)CCN1S(=O)(=O)c1ccccc1`, the activity change, negative = inhibition in assay [1] is -4.71%; in assay [2], -10.7%; in assay [3] it was -5.4%; in assay [4], -2.72%; in assay [5], -4.5%.
For the compound `C=Cc1ccc(CSc2nnc3n(CCC)c(=O)c4ccc(Cl)cc4n23)cc1`, the activity change, negative = inhibition in assay [1] worked out at 1.75%; in assay [2], 2.79%; in assay [3] it was 2.52%; in assay [4], 1.89%; in assay [5], 2.43%.
As to `O=C(Cn1c(=O)oc2cc(S(=O)(=O)NCc3ccccc3)ccc21)NCc1ccco1`, the activity change, negative = inhibition in assay [1] is -5.44%; in assay [2], 5.32%; in assay [3], 1.45%; in assay [4], 5.66%; in assay [5], -3.92%.
For the compound `COCCCN1C(=O)c2cc(-c3ccc(OC)cc3)nn2CC1(C)C(=O)NCc1ccccc1OC` (stereo not given), the activity change, negative = inhibition was -5.54% in assay [1]; 0.558% in assay [2]; -4.13% in assay [3]; -6.9% in assay [4]; -7.38% in assay [5].
The corresponding values for `c1cncc(CN2CCC(n3ncc4c(N5CCOCC5)nc(-c5ccc6[nH]ccc6c5)nc43)CC2)c1` are -39%, 16.7%, -0.481%, -5.21% and 6.99%.
The like results for `O=C(Cn1c(=O)oc2cc(S(=O)(=O)N3CCCC3)ccc21)Nc1ccc(F)cc1` were, in that order, 2.99%, 0.258%, 2.38%, -1.94% and -16%.
For the compound `CC1(C(=O)NC2CCCCC2)Cn2nc(-c3ccco3)cc2C(=O)N1CCCc1ccccc1` (stereo not given), the activity change, negative = inhibition in assay [1] was 1.48%; in assay [2], -1.81%; in assay [3] it was 3.67%; in assay [4] it was 0.364%; in assay [5], -3.36%.
Take `Cc1cccc(-c2noc([C@@H]3Cc4nc[nH]c4CN3C(=O)COCC(=O)O)n2)c1`: the activity change, negative = inhibition in assay [1] was -3.4%; in assay [2] it was 2.48%; in assay [3] it was 0.3%; in assay [4], -3.5%; in assay [5], 4.42%.
Turning to `COC1CCN(C(=O)c2cc(Cc3n[nH]c(=O)c4ccccc34)ccc2F)CC1`, the activity change, negative = inhibition in assay [1] is -3.15%; in assay [2], -5.98%; in assay [3], -6.68%; in assay [4], -18.1%; in assay [5], -13.7%.
The like results for `CCN(Cc1nc(C)no1)C(=O)c1cc(COc2cccc(F)c2)[nH]n1` were, in that order, -1.43%, 1.47%, -0.04%, -0.729% and 12.6%.
Take `COc1ccc(-c2cc3n(n2)CC(C)(C(=O)NCc2ccccc2)N(c2cccc(Cl)c2C)C3=O)cc1` (stereo not given): the activity change, negative = inhibition was -1.24% in assay [1]; 4.34% in assay [2]; -0.4% in assay [3]; -0.995% in assay [4]; -1.05% in assay [5].
Regarding `CC(C)Cn1c(=O)c2ccccc2n2c(CCC(=O)NCc3ccccc3Cl)nnc12`, the activity change, negative = inhibition was -4.57% in assay [1]; 0% in assay [2]; 9.38% in assay [3]; 7.89% in assay [4]; -0.048% in assay [5].
The like results for `CCCN1C(=O)c2c(C(=O)NCCc3ccc(OC)c(OC)c3)ncn2CC1(C)C(=O)NC1CCCC1` (stereo not given) were, in that order, -4.33%, 4.69%, 2.73%, 0.396% and 4.01%.
For the compound `CN1CCN(c2nc3c(-c4cccc(F)c4)nnn3c3ccc(Cl)cc23)CC1`, the activity change, negative = inhibition was -3.74% in assay [1]; 0.439% in assay [2]; 8.52% in assay [3]; 13.2% in assay [4]; 0.879% in assay [5].
On to `CCOC(=O)c1cc2n(n1)CC(C)(C(=O)NCc1ccccc1)N(c1ccc(C)cc1C)C2=O` (stereo not given), for which the activity change, negative = inhibition in assay [1] was -3.42%; in assay [2], 0.681%; in assay [3] it was -4.56%; in assay [4], -6.25%; in assay [5], -4%.
With `COCCn1c(C)cnc1CCNC(=O)c1cc(C)nn1C`, the activity change, negative = inhibition is 0.731% in assay [1]; 1.59% in assay [2]; -0.586% in assay [3]; -1.49% in assay [4]; 12.7% in assay [5].
In the case of `COC(=O)C1=C[C@@H](O)[C@@H](O)[C@H](O[C@@H]2O[C@H](COC(=O)/C=C/c3ccccc3)[C@@H](O)[C@H](O)[C@H]2O)C1`, the activity change, negative = inhibition was 2.12% in assay [1]; -2.75% in assay [2]; 4.62% in assay [3]; -13.3% in assay [4]; 1.19% in assay [5].
The like results for `C#CCNC(=O)C1CCc2nnc(C3CCN(C(=O)Nc4ccc(Cl)cc4)CC3)n21` (stereo not given) were, in that order, -2.63%, -3.78%, -2.23%, -6.63% and -4.22%.
`Cc1nn(C)c(=O)n1C1CCN(S(=O)(=O)c2cccs2)CC1`: the activity change, negative = inhibition in assay [1] was -0.1%; in assay [2] it was -0.544%; in assay [3] it was 3.45%; in assay [4], -1.06%; in assay [5], -1.66%.
The corresponding values for `Cc1cccc(N2C(=O)c3cc(-c4cccs4)nn3CC2(C)C(=O)NC2CCCCC2)c1C` (stereo not given) are -8.31%, -0.904%, -3.98%, -1.89% and -8.34%.
The corresponding values for `COc1cccc(-c2cccc(CN3CCCC3C(=O)N3CCCCC3)c2)c1` (stereo not given) are -9.92%, -10.1%, -10.9%, -21.5% and -17.2%.
As to `C[C@@H]1CC[C@]2(C(=O)O)CC[C@]3(C)C(=CCC4[C@@]5(C)CC[C@H](O)[C@](C)(C(=O)O)C5CC[C@]43C)C2[C@]1(C)O` (stereo not given in full), the activity change, negative = inhibition in assay [1] is -0.085%; in assay [2], 0.7%; in assay [3], 9.34%; in assay [4], -15.5%; in assay [5] it was -7.85%.
As for `CC1(C(=O)NC2CCCCC2)Cn2c(cc3ccccc32)C(=O)N1CCN1CCOCC1` (stereo not given), the activity change, negative = inhibition in assay [1] was -2.45%; in assay [2], 4.99%; in assay [3], -1.23%; in assay [4], -2.8%; in assay [5], -0.271%.
Regarding `Cc1nncn1C1CN(S(=O)(=O)c2ccc3c(c2)CCC3)C1`, the activity change, negative = inhibition in assay [1] was -1.24%; in assay [2], 0.487%; in assay [3], 2.28%; in assay [4], -3.92%; in assay [5] it was 8.21%.
The corresponding values for `CC(=O)C=C=C1C(C)(C)CC(O)CC1(C)O[C@@H]1O[C@H](CO[C@H]2OC[C@](O)(CO)[C@H]2O)[C@@H](O)[C@H](O)[C@H]1O` (stereo not given in full) are -8.92%, -25.6%, 3.27%, -35.2% and -0.551%.
As to `COc1ccccc1C(=O)N1CCCC(CN2CCC(C)CC2)CC1` (stereo not given), the activity change, negative = inhibition is -3.23% in assay [1]; -4.13% in assay [2]; -9.88% in assay [3]; -2.01% in assay [4]; -0.94% in assay [5].
Turning to `CCOC(=O)[C@H](CCc1ccccc1)CC1(C(=O)N[C@H]2CCc3ccccc3N(CC(=O)O)C2=O)CCCC1`, the activity change, negative = inhibition is 4.94% in assay [1]; 4.66% in assay [2]; 7.16% in assay [3]; -13.9% in assay [4]; -1.97% in assay [5].
The corresponding values for `COc1ccc2cc3n(c2c1)CC(C)(C(=O)NC1CCCCCC1)N(Cc1cccs1)C3=O` (stereo not given) are 1.63%, 0%, 2.95%, -10.6% and -1.04%.
For `COc1cc(-c2nnc3n(CCc4ccccc4)c(=O)c4ccccc4n23)ccc1O`, the activity change, negative = inhibition was -7.12% in assay [1]; 5.53% in assay [2]; -0.221% in assay [3]; 3.32% in assay [4]; -4.37% in assay [5].
Consider `CCCN1C(=O)c2c(C(=O)Nc3ccccc3CC)ncn2CC1(C)C(=O)NCc1ccc(C)cc1` (stereo not given), for which the activity change, negative = inhibition was determined as 4.57% in assay [1]; 0% in assay [2]; 15.1% in assay [3]; 3.58% in assay [4]; 11.7% in assay [5].
Take `Cc1[nH]cnc1-c1nccn1CC(CO)Cc1cccs1` (stereo not given): the activity change, negative = inhibition in assay [1] was -4.25%; in assay [2] it was -9.47%; in assay [3], -20.4%; in assay [4] it was -16.5%; in assay [5], -13.6%.
The like results for `Cc1ccc(C)c(N2CCN(C(=O)Cn3c(=O)oc4cc(S(=O)(=O)N5CCCC5)ccc43)CC2)c1` were, in that order, 16.4%, 0.558%, 14.7%, 7.27% and 10%.
The like results for `CN1C(=O)c2cc(C(=O)NCCc3ccccc3)nn2CC1(C)C(=O)NC1CCCCCC1` (stereo not given) were, in that order, 7.69%, 2.16%, 5.13%, 8.43% and 1.91%.
`CCOc1ccc(N2C(=O)c3cc4sccc4n3CC2(C)C(=O)NC2CCCCCC2)cc1` (stereo not given): the activity change, negative = inhibition in assay [1] was -6.51%; in assay [2], 4.92%; in assay [3], -4.6%; in assay [4], -4.72%; in assay [5], -5.83%.
